# Assay results as given in the supplement of paper PMC8728848.
# The other results are listed elsewhere or left out.
# B1: AAL (Aleuria aurantia) (protein)
# chain: MPTEFLYTSKIAAISWAATGGRQQRVYFQDLNGKIREAQRGGDNPWTGGSSQNVIGEAKLFSPLAAVTWKSAQGIQIRVYCVNKDNILSEFVYDGSKWITGQLGSVGVKVGSNSKLAALQWGGSESAPPNIRVYYQKSNGSGSSIHEYVWSGKWTAGASFGSTVPGTGIGATAIGPGRLRIYYQATDNKIREHCWDSNSWYVGGFSASASAGVSIAAISWGSTPQIRVYWQKGREELYEAAYGGSWNTPGQIKDASRPTPSLPDTFIAANSSGNIDISVFFQASGVSLQQWQWISGKGWSIGAVVPTGTPAGW
# Key:
# Assay in all cases: glycan array binding signal (z-score within array); higher = stronger binding
# Conditions in all cases: glycan notation: IUPAC condensed, linker removed; mutation: N224Q
# GalNAc(b1-4)GlcNAc = target: GalNAc(b1-4)GlcNAc
# How it was run: (§1)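 The Consortium for Functional Glycomics database supplied 3228 glycan arrays, of which those lacking an available protein sequence were dropped. The binding signal, a within-array Z-score, was averaged across arrays of the same protein sequence and across linkers. Negative scores can be read as non-binding.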
# [1] = target: GalNAc(b1-4)GlcNAc(b1-2)Man
# How it was run: as §1
# [2] = target: GalNAc(b1-4)GlcNAc(b1-2)Man(a1-3)[GalNAc(b1-4)GlcNAc(b1-2)Man(a1-6)]Man(b1-4)GlcNAc(b1-4)GlcNAc
# How it was run: as §1
# [3] = target: GalNAc(b1-4)GlcNAc(b1-3)GalNAc(b1-4)GlcNAc
# How it was run: as §1
# GalNAc(b1-4)GlcNAc6S = target: GalNAc(b1-4)GlcNAc6S
# How it was run: as §1
# GalNAc(b1-6)GalNAc = target: GalNAc(b1-6)GalNAc
# How it was run: as §1
# GalNAc3S(b1-4)GlcNAc = target: GalNAc3S(b1-4)GlcNAc
# How it was run: as §1
# GalNAc3S(b1-4)GlcNAc3S = target: GalNAc3S(b1-4)GlcNAc3S
# How it was run: as §1
# [4] = target: GalNAc3S(b1-4)[Fuc(a1-3)]GlcNAc
# How it was run: as §1
# GalNAc4S6S(b1-4)GlcNAc = target: GalNAc4S6S(b1-4)GlcNAc
# How it was run: as §1
# GalNAc6S(b1-4)GlcNAc = target: GalNAc6S(b1-4)GlcNAc
# How it was run: as §1
# Glc(a1-4)Glc = target: Glc(a1-4)Glc
# How it was run: as §1
# [5] = target: Glc(a1-4)Glc(a1-4)Glc(a1-4)Glc
# How it was run: as §1
# Glc(a1-6)Glc(a1-6)Glc = target: Glc(a1-6)Glc(a1-6)Glc
# How it was run: as §1
# [6] = target: Glc(a1-6)Glc(a1-6)Glc(a1-6)Glc
# How it was run: as §1
# Glc(b1-4)Glc = target: Glc(b1-4)Glc
# How it was run: as §1
# Glc(b1-6)Glc = target: Glc(b1-6)Glc
# How it was run: as §1
# GlcA(b1-3)Gal = target: GlcA(b1-3)Gal
# How it was run: as §1
# GlcA(b1-3)GlcNAc = target: GlcA(b1-3)GlcNAc
# How it was run: as §1
# GlcA(b1-6)Gal = target: GlcA(b1-6)Gal
# How it was run: as §1
# [7] = target: GlcA3S(b1-3)Gal(b1-4)GlcNAc(b1-2)Man
# How it was run: as §1
# [8] = target: GlcA3S(b1-3)Gal(b1-4)GlcNAc(b1-3)Gal(b1-4)Glc
# How it was run: as §1
# [9] = target: GlcNAc(a1-3)Gal(b1-4)GlcNAc
# How it was run: as §1
# [10] = target: GlcNAc(a1-4)Gal(b1-3)GlcNAc
# How it was run: as §1
# [11] = target: GlcNAc(a1-4)Gal(b1-4)GalNAc
# How it was run: as §1
# [12] = target: GlcNAc(a1-4)Gal(b1-4)GlcNAc
# How it was run: as §1
# [13] = target: GlcNAc(a1-4)Gal(b1-4)GlcNAc(b1-3)Gal(b1-4)Glc
# How it was run: as §1
# [14] = target: GlcNAc(a1-4)Gal(b1-4)GlcNAc(b1-3)Gal(b1-4)GlcNAc
# How it was run: as §1
# [15] = target: GlcNAc(a1-4)Gal(b1-4)GlcNAc(b1-3)Gal(b1-4)GlcNAc(b1-3)Gal(b1-4)GlcNAc
# How it was run: as §1
# [16] = target: GlcNAc(a1-4)Gal(b1-4)GlcNAc(b1-3)Gal(b1-4)[Fuc(a1-3)]GlcNAc(b1-3)Gal(b1-4)[Fuc(a1-3)]GlcNAc
# How it was run: as §1
# [17] = target: GlcNAc(a1-6)Gal(b1-4)GlcNAc
# How it was run: as §1
# [18] = target: GlcNAc(b1-2)Gal(b1-3)GalNAc
# How it was run: as §1
# [19] = target: GlcNAc(b1-2)Man(a1-3)[GlcNAc(b1-2)Man(a1-6)]Man(b1-4)GlcNAc(b1-4)GlcNAc
# How it was run: as §1
# [20] = target: GlcNAc(b1-2)Man(a1-3)[GlcNAc(b1-2)Man(a1-6)]Man(b1-4)GlcNAc(b1-4)[Fuc(a1-6)]GlcNAc
# How it was run: as §1
# [21] = target: GlcNAc(b1-2)Man(a1-3)[GlcNAc(b1-4)][GlcNAc(b1-2)Man(a1-6)]Man(b1-4)GlcNAc(b1-4)GlcNAc
# How it was run: as §1
# [22] = target: GlcNAc(b1-2)Man(a1-3)[GlcNAc(b1-4)][GlcNAc(b1-2)Man(a1-6)]Man(b1-4)GlcNAc(b1-4)[Fuc(a1-6)]GlcNAc
# How it was run: as §1
# [23] = target: GlcNAc(b1-2)[GlcNAc(b1-4)]Man(a1-3)[GlcNAc(b1-2)Man(a1-6)]Man(b1-4)GlcNAc(b1-4)GlcNAc
# How it was run: as §1
binder,measurement,setting,value
B1,glycan array binding signal (z-score),GalNAc(b1-4)GlcNAc,-0.318
same,glycan array binding signal (z-score),[1],-0.322
same,glycan array binding signal (z-score),[2],-0.307
same,glycan array binding signal (z-score),[3],-0.277
same,glycan array binding signal (z-score),GalNAc(b1-4)GlcNAc6S,-0.326
same,glycan array binding signal (z-score),GalNAc(b1-6)GalNAc,-0.322
same,glycan array binding signal (z-score),GalNAc3S(b1-4)GlcNAc,-0.331
same,glycan array binding signal (z-score),GalNAc3S(b1-4)GlcNAc3S,-0.321
same,glycan array binding signal (z-score),[4],0.028
same,glycan array binding signal (z-score),GalNAc4S6S(b1-4)GlcNAc,-0.323
same,glycan array binding signal (z-score),GalNAc6S(b1-4)GlcNAc,-0.335
same,glycan array binding signal (z-score),Glc(a1-4)Glc,-0.312
same,glycan array binding signal (z-score),[5],-0.298
same,glycan array binding signal (z-score),Glc(a1-6)Glc(a1-6)Glc,-0.312
same,glycan array binding signal (z-score),[6],-0.309
same,glycan array binding signal (z-score),Glc(b1-4)Glc,-0.311
same,glycan array binding signal (z-score),Glc(b1-6)Glc,-0.312
same,glycan array binding signal (z-score),GlcA(b1-3)Gal,-0.314
same,glycan array binding signal (z-score),GlcA(b1-3)GlcNAc,-0.319
same,glycan array binding signal (z-score),GlcA(b1-6)Gal,-0.317
same,glycan array binding signal (z-score),[7],-0.307
same,glycan array binding signal (z-score),[8],-0.313
same,glycan array binding signal (z-score),[9],-0.323
same,glycan array binding signal (z-score),[10],-0.329
same,glycan array binding signal (z-score),[11],-0.318
same,glycan array binding signal (z-score),[12],-0.318
same,glycan array binding signal (z-score),[13],-0.318
same,glycan array binding signal (z-score),[14],-0.3
same,glycan array binding signal (z-score),[15],-0.314
same,glycan array binding signal (z-score),[16],0.443
same,glycan array binding signal (z-score),[17],-0.334
same,glycan array binding signal (z-score),[18],-0.326
same,glycan array binding signal (z-score),[19],-0.31
same,glycan array binding signal (z-score),[20],-0.265
same,glycan array binding signal (z-score),[21],-0.308
same,glycan array binding signal (z-score),[22],0.193
same,glycan array binding signal (z-score),[23],-0.312
